Results on 25 molecules are retold here after article PMC4336329 (PLoS ONE, 2015).

Structures are written as SMILES. Among all 310,000 compounds or so, about 14,000 (4.5%) showed an effect of 50% or more. Effects have a minus sign here. This is one part of the list. Where a SMILES comes first, the peptide text is derived from it. [ ]: non-standard residue; d: D form. The star is where a group is joined. ξ: configuration not given here. ξN = NC(=O)CC(N)C(=O)O; Boc = CC(C)(C)OC(=O)*
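Note: peak tail current of the secondary pulse compared with the same well before compound.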

Sequence of human ether-à-go-go-related gene (hERG) potassium channel (Q12809 whole entry, looked up): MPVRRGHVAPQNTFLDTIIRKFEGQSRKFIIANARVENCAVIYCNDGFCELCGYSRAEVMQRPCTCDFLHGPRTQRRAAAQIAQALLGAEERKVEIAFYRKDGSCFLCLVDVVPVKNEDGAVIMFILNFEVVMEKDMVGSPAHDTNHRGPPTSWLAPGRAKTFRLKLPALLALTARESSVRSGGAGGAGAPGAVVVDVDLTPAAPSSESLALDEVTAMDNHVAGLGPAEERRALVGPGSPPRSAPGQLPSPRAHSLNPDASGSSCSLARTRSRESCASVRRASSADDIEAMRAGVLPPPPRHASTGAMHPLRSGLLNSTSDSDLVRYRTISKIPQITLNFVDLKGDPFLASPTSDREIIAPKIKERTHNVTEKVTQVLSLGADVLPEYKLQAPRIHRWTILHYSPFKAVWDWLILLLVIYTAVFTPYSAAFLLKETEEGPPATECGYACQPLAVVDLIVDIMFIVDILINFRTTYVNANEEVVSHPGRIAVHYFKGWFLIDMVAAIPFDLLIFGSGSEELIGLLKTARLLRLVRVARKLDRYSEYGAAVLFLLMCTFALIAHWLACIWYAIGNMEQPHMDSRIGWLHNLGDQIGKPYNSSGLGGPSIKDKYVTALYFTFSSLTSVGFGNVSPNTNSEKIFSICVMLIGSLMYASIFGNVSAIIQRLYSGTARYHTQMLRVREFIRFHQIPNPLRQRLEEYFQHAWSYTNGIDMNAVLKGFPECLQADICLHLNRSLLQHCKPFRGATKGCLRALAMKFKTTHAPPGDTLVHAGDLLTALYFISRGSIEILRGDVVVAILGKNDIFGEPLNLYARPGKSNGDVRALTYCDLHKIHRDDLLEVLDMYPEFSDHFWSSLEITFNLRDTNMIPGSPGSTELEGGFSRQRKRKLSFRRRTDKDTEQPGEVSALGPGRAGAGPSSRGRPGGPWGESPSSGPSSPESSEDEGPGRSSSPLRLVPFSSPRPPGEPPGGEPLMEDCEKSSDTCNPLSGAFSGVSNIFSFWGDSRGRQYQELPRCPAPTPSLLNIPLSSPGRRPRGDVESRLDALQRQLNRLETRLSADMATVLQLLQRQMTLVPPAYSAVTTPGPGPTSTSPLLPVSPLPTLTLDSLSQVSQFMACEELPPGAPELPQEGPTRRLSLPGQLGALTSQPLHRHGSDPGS

The test has as its target human ether-à-go-go-related gene (hERG) potassium channel (human, UniProt Q12809). In words: primary screen, population patch clamp on CHO cells stably expressing hERG.
In the case of `COc1cccc(/C=N/NC(=O)c2ccncc2)c1OC(=O)c1ccc(Br)cc1`, the “hERG current change (%, negative = inhibition) at 10uM” value was 13.3%. To `O=C(NCc1ccccn1)c1ccc(CS(=O)(=O)Cc2ccc(Cl)cc2)o1` belongs -12.1%; to `O=C(Nc1ccccc1N1CCOCC1)c1ccc(F)c(S(=O)(=O)N2CCOCC2)c1`, -12.6%; to `CCO.N#CC1=C(N)C(C#N)(C#N)C(c2cccnc2)C2CC(c3ccccc3)CC=C12` (stereo not shown), 8.55%. The same measure for `COc1ccc(CC(=O)NNS(=O)(=O)c2ccccc2[N+](=O)[O-])cc1`: 20.3%; for `CCCCc1ccc(NC(=O)CSc2nnc(CNC(=O)c3ccco3)o2)cc1`: -1.33%.

For `CNC(=O)c1c(Cl)cnn1-c1ccc(C)cc1`, the “hERG current change (%, negative = inhibition) at 10uM” value was 21.6%. On to `CCC(=O)Nc1ccccc1-c1nc2ccccc2[nH]c1=O`, for which the “hERG current change (%, negative = inhibition) at 10uM” value was determined as 17.1%. For the molecule `OC(CSc1c(Cl)cccc1Cl)CN1CCN(c2ccc(F)cc2)CC1` (stereo not shown), the “hERG current change (%, negative = inhibition) at 10uM” value was -40.3%.

Consider `Cc1nc2cc(Cl)c([N+](=O)[O-])cc2s1`, for which the “hERG current change (%, negative = inhibition) at 10uM” value is recorded as -42.2%. Turning to `Oc1ccccc1-c1nc2ccccc2nc1-c1ccccc1`, the “hERG current change (%, negative = inhibition) at 10uM” value is listed as -3.36%.

For `CN1CCN(C(c2ccc(Cl)cc2)c2cc(Cl)c3cccnc3c2O)CC1` (stereo not shown), the “hERG current change (%, negative = inhibition) at 10uM” value is given as 7.12%. The same measure for `CC(=O)NNC(=O)CCn1c2c(c3ccccc31)CCCC2`: 9.01%; for `Cc1cc(C(=O)N2CCOCC2)n(-c2ccccc2)n1`: 3.67%; for `CCOC(=O)C1(CC2CCCCO2)CCN(S(=O)(=O)c2ccccc2)CC1` (stereo not shown): 9.64%. To `Cc1oc(-c2ccccc2)cc1C(=O)Nc1cccc2ccccc12` belongs 12.1%. To `Cc1c(NC(=O)C(C)OC(=O)c2cccc(S(=O)(=O)N(C)C)c2)c(=O)n(-c2ccccc2)n1C` (stereo not shown) belongs 22.7%. As to `CCOC(=O)CNC(=O)C(CC(N)=O)NC(=O)OC(C)(C)C` (stereo not shown) (Boc-[ξN]-Gly-OEt), the “hERG current change (%, negative = inhibition) at 10uM” value stood at 20.3%. To `O=C(CNC1CCCCC1)NN=C(c1ccccc1)c1ccccc1` belongs -59.8%; to `Cc1ncoc1C(=O)Nc1cccc(Cl)c1C`, -7.25%.

Take `COc1cccc(NC(=O)Nc2cnccn2)c1`: the “hERG current change (%, negative = inhibition) at 10uM” value is 6.34%. The same measure for `Cc1cc(N2CCC(N(C)C3CCCC3)CC2)nc2cc(O)ccc12`: -14.7%. The same measure for `COCCN=c1scc(-c2cccs2)n1/N=C/c1ccc(O)c(O)c1O`: 6.24%.

On to `CN1CCN(C(=O)/C(=C\c2cccs2)NC(=O)c2ccco2)CC1`, for which the “hERG current change (%, negative = inhibition) at 10uM” value is -67.4%. To `O=C(Nc1ccccc1)N(C1=NCCCCS1)c1cccc2ccccc12` belongs -5.15%.
